PubChem BioAssay AID485294 (National Center for Advancing Translational Sciences (NCATS), 2010)
Hit rate of the full screen: of about 370,000 compounds, about 150 (0.041%) were called active. Inconclusive means that the source gave no clear call. Such entries were picked first, then a sample of the others. Calls follow the shape of the dose curve; as a rule, active = well fitted inhibition curve with a large enough effect; inconclusive = small, poorly fitted or top-dose-only effect; inactive = flat fitted curve, though single readings scatter. No potency is given beside an inconclusive call; the fits are too rough.

biological target: Beta-lactamase (Escherichia coli (strain K12)) (UniProt P00811); test: qHTS Inhibitors of AmpC Beta-Lactamase (assay with detergent); details: AmpC hydrolysis of nitrocefin, absorbance 480 nm, 0.01% Triton; activity change, negative = inhibition: at 114 µM (top of the series); also: nearly all actives have a fitted effect of over 25% in size;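 as to activity change, negative = inhibition: 0% = no-compound wells and -100% = no-enzyme wells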
Sequence of UniProt P00811 (P00811 whole entry, looked up): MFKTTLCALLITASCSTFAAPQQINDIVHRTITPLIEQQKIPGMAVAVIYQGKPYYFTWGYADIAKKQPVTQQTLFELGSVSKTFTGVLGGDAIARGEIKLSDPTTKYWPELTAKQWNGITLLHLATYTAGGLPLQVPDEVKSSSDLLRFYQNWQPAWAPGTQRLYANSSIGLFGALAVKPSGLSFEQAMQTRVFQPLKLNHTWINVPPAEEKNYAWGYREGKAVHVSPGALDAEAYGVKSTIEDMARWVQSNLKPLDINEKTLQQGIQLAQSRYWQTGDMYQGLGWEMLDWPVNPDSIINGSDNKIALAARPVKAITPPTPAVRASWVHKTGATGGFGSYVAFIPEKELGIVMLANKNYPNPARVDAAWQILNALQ
Outline: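 20 mM phosphate pH 7.0 + 0.01% (detergent screen) or 0.0001% Triton X-100; 5.3 nM AmpC reagent; cpd preinc 15 min RT; nitrocefin (800 uM stock) to start; A480 q20 s × 4 min; Activity was normalised to no-enzyme and no-compound control wells.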
Potency is read from the fitted curve at half-maximal effect; tags tell the direction and shape of the fitted curve.

Q: How did the Potency turn out when `COc1ccc(S(=O)(=O)N2CCN(Cc3cccc(OC)c3OC)CC2)cc1` was run?
A: inconclusive [inhibitor, full curve, poor fit]

Q: For `O=C(CN1C(=O)c2ccccc2C1=O)Nc1cccnc1`, which Potency is on record?
A: inconclusive [inhibitor, full curve, poor fit]

Q: For `O=C(COc1ccc(C(=O)NCCN2CCOCC2)cc1)Nc1cccc(C(F)(F)F)c1`, which Potency is on record?
A: inconclusive [inhibitor, full curve, poor fit]

Q: Which Potency does the source give for `CCOc1ccc(C(=O)CCC(=O)NNC(=O)c2ccccc2O)cc1` here?
A: inconclusive [inhibitor, full curve, poor fit]

Q: How did the “activity change, negative = inhibition” value turn out when `NS(=O)(=O)c1ccc(NC(=O)COC(=O)c2ccc([N+](=O)[O-])s2)cc1` was run?
A: inactive: 2.42%

Q: Which Potency does the source give for `CCCC[C@]12Cc3cc(OC)c(OC)cc3C(O1)C1=C(O2)C(=O)c2ccccc2C1=O` here?
A: inconclusive [inhibitor, partial curve]

Q: How did the “activity change, negative = inhibition” value turn out when `FC(F)(F)c1nnc(-c2ccccc2)nc1Sc1ccccc1` was run?
A: inactive: -3.54%

Q: For `Cc1cc2ncn(N)c2cc1C`, which Potency is on record?
A: inconclusive [inhibitor, full curve, poor fit]

Q: `CC(C)(C)C(=O)Nc1c2c(nn1-c1ccccc1)CSC2` was tested. Which “activity change, negative = inhibition” value did it give?
A: inactive: -7.88%

Q: Which Potency does the source give for `Cc1cc(=O)oc2cc(OCC(=O)NCc3ccco3)ccc12` here?
A: inconclusive [inhibitor, partial curve]

Q: For `O=c1oc2ccccc2c(O)c1C(c1ccc([N+](=O)[O-])cc1)c1c(O)c2ccccc2oc1=O`, which Potency is on record?
A: inconclusive [inhibitor, full curve, poor fit]

Q: With `CC(=O)c1c(C)[nH]c(C(=O)OCC(=O)NCCCc2ccccc2)c1C` as the molecule, how does the “activity change, negative = inhibition” value read?
A: inactive: 1.45%

Q: Which Potency does the source give for `CCOC(=O)C1CCN(C(=O)c2ccc(SC)cc2OC)CC1` here?
A: inconclusive [inhibitor, full curve, poor fit]

Q: For `CC(C)Oc1ccc(CNC(=O)CCC(=O)N2CC(C)Sc3ccccc32)cc1` (stereo not drawn), which Potency is on record?
A: inconclusive [inhibitor, single point]

Q: `COC(=O)c1sccc1-c1ccc(C(=O)Nc2cccc(Cl)c2)o1` was tested. Which Potency did it give?
A: inconclusive [inhibitor, partial curve, poor fit]

Q: With `COc1ccc(S(=O)(=O)NCCCN2CCOCC2)c2ccccc12` as the molecule, how does the Potency read?
A: inconclusive [inhibitor, single point]

Q: Which Potency does the source give for `Cc1ccc2nc(NC(=O)C3CCN(S(=O)(=O)c4ccc5c(c4)oc(=O)n5C)CC3)sc2c1` here?
A: inconclusive [inhibitor, partial curve, poor fit]

Q: Which “activity change, negative = inhibition” value does the source give for `Cc1occc1C(=O)N=Nc1c(O)n(C)c2ccccc12` here?
A: inactive: -12.1%
